Source: PubChem BioAssay (NCI)
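48-hour exposure; five concentrations; linearly interpolated endpoints. GI50: concentration for 50% inhibition of growth. TGI marks complete inhibition of growth.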

These compounds were tested on NCI-H322M lung (assay: growth of human tumour cells (NCI), 48 h).

Question: For `CN(C)c1ccc(-c2cc(-c3c[nH]c4ccccc34)nc(N)c2C#N)cc1`, which GI50 is on record?
Answer: 3.3 µM

Question: What about the TGI of the same compound?
Answer: 17.1 µM

Question: For `O=C1NC(=C(Cl)Cl)/C(=N/S(=O)(=O)N2CCCCC2CC2(C(F)(F)F)N=N2)N1` (stereo not drawn), which GI50 is on record?
Answer: 2.91 µM

Question: And the TGI?
Answer: 11.2 µM

Question: What does the source list for `COc1ccc(-c2cc(-c3cccc4ccccc34)n3c(n2)nc2ccccc23)cc1OC`?
Answer: GI50: 7.36 µM; TGI: > 100 µM

Question: How did the GI50 turn out when `Cc1cc(Cl)cc(NS(=O)(=O)c2ccc(-c3cnc(C4CC4)o3)cc2)c1` was run?
Answer: 0.71 µM

Question: What about the TGI of the same compound?
Answer: 23.7 µM
